Data taken from patent US20080008771A1, “Nitric Oxide Dioxygenase Inhibitors” (priority 2004, published 2008).

How the values were obtained:
Experiment in all cases: biochemical
[1] = target: S. cerevisiae flavohemoglobin (Saccharomyces cerevisiae, UniProt P39676)
[2] = target: A. eutrophus flavohemoglobin (Cupriavidus necator, UniProt P39662); conditions: Apparent Ki
[3] = target: E. coli flavohemoglobin (NOD) (Escherichia coli, UniProt P24232)
Sequence of E. coli flavohemoglobin (NOD) (P24232 whole entry): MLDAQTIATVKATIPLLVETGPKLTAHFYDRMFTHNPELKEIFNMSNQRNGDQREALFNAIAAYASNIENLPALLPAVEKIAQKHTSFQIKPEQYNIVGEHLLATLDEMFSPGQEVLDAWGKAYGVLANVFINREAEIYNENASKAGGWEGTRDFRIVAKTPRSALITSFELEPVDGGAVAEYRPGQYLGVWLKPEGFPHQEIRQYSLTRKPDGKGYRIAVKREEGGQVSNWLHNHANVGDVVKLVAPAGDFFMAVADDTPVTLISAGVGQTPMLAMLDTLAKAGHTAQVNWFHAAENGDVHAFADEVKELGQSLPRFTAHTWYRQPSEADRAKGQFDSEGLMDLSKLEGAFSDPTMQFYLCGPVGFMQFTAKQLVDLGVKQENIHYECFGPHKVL

Sequence of A. eutrophus flavohemoglobin (P39662 whole entry): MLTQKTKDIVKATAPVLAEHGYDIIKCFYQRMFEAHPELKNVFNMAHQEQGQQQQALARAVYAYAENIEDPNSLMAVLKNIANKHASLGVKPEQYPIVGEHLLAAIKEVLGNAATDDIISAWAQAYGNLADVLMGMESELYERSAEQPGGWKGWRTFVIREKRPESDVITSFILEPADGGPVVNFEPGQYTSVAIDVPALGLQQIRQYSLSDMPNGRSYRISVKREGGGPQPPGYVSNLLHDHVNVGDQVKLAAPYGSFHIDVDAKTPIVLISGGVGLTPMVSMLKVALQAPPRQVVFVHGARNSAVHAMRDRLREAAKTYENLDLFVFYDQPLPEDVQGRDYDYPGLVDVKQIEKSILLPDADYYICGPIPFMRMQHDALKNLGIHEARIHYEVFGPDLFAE
Sequence of S. cerevisiae flavohemoglobin (P39676 whole entry): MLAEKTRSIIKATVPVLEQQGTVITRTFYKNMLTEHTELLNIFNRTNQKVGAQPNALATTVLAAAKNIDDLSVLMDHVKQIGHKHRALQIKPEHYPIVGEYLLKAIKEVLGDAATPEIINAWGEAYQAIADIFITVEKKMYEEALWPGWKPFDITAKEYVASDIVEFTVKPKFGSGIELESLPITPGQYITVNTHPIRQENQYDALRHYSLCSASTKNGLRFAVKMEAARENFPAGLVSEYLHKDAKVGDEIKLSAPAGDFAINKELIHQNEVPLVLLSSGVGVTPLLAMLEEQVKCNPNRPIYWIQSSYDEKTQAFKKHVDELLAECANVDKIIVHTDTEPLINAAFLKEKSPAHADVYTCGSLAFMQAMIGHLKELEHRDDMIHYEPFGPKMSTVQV

With `Clc1ccccc1C(c1ccccc1)(c1ccccc1)n1ccnc1` [clotrimazole] the Ki [1] was 50000 nM, the Ki ([2]; first (major) phase) was 200 nM and the Ki ([2]; second (minor) phase) was 5000 nM. The Ki [3] was 1300 nM.
`Clc1ccc(COC(Cn2ccnc2)c2ccc(Cl)cc2Cl)cc1` (stereo not drawn) [econazole] showed a Ki [1] of 30000 nM, a Ki ([2]; first (major) phase) of 100 nM and a Ki ([2]; second (minor) phase) of 2000 nM. It also gave a Ki [3] of 550 nM.
In the case of `Clc1ccc(COC(Cn2ccnc2)c2ccc(Cl)cc2Cl)c(Cl)c1` (stereo not drawn) [miconazole], the Ki [1] is reported as 12000 nM, the Ki ([2]; first (major) phase) is reported as 5 nM and the Ki ([2]; second (minor) phase) is reported as 650 nM. The Ki [3] was 80 nM.
